# Screen size: about 50,000 compounds; about 800 (1.6%) showed an effect of 50% or more. Some of the results follow.
# Target: Bcl-2-like protein 10 (Homo sapiens) (UniProt Q9HD36)
# Assay: Phenotype converters, Bcl-B/TR3 peptide binding displacement, primary biochemical FP (AID 1240);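 note: 0% = Bcl-B with tracer peptide and DMSO and 100% = tracer peptide lacking Bcl-B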
# Conditions: GST-Bcl-B / FITC-TR3 peptide fluorescence polarization; stronger effect = higher value; compound at 3.75 mg/L
# UniProt Q9HD36, sequence (Q9HD36 whole entry, looked up): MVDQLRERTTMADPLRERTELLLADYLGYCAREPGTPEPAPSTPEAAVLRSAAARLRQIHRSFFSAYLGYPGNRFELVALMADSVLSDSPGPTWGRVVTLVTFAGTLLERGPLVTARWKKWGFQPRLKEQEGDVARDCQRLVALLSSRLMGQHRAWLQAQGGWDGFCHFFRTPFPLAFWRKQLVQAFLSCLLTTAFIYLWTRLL
row,Structure (SMILES),displacement
1,COc1ccc(C(=O)NNC(=O)Nc2ccc(Cl)cc2)cc1,-4.8%
2,COc1ccc2nc(NC(=O)CN3C(=O)c4ccccc4C3=O)sc2c1,18%
3,O=C1NC(=O)C(C=Nc2ccc(OC(F)F)cc2)C(=O)N1,5.3%
4,O=C1CSC(c2ccc(Cl)cc2Cl)N1CCN1CCCCC1 (centres undefined),-4.4%
5,CC(C)(C)NC(=O)c1ccccc1C(=O)O,0.3%
6,CCOC(=O)c1ccc(NC(=O)CN(c2ccc(OCC)cc2)S(=O)(=O)c2ccc(Br)cc2)cc1,-0.3%
7,O=C(c1cccc(F)c1)N1CCCCCC1,-5.3%
8,CCOC(=O)c1c(NC(=O)c2ccco2)sc(C(=O)N(CC)CC)c1C,-3.6%
9,C=CCNS(=O)(=O)c1ccccc1[N+](=O)[O-],-0.1%
10,NCCC12CC3CC(C1)CC(CCN)(C3)C2,-5.4%
11,Cc1ccc(C(=O)O)cc1S(=O)(=O)N1CCC(C)CC1,2.4%
12,COc1cccc(OCCOc2ccc(/C=C3/SC(=S)N(Cc4ccccc4)C3=O)cc2)c1,-5.4%
13,FC(F)(F)c1cccc(Nc2ncnc3ccc(Br)cc23)c1,3.1%
14,O=c1[nH]c(=S)n(-c2ccc(Cl)cc2)c(O)c1/C=C1\C=Nc2ccccc21,-37.5%
15,CC1(C)CC(=O)C2=C(C1)Nc1ccccc1N(C(=O)c1ccccc1)C2c1cccc(F)c1 (centres undefined),0.7%
16,O=C1OC(c2ccc(Cl)cc2)=N/C1=C\c1ccccc1[N+](=O)[O-],6.7%
17,O=C(Nc1ccccc1C(=O)O)c1ccc(NC(=O)c2cccs2)cc1,0.7%
18,COC(=O)C1=C(C)Nc2cc(C(F)(F)F)ccc2S1,4.3%
19,CCN(CC)CCOCCOc1ccc(Cl)cc1Cl,1%
20,CCOc1ccc(S(=O)(=O)N2CCSC2c2ccc3c4c(cccc24)CC3)cc1 (centres undefined),-11.9%
21,COc1cccc(N(CC(=O)Nc2cc(C)cc(C)c2)S(=O)(=O)c2ccccc2)c1,-4.7%
22,CCOC(=O)c1ccc(N2NC(=O)/C(=C/c3cccc(Br)c3)C2=O)cc1,27.9%
23,NC1=NC(=O)/C(=C\C=C\c2ccccc2)S1,154%
24,COC(=O)C1=C(C)NC2=C(C(=O)c3ccccc32)C1c1ccc(F)cc1 (centres undefined),10.2%
25,Cc1cccc(C(=O)N2c3ccc([N+](=O)[O-])cc3-c3c(ssc3=S)C2(C)C)c1,10.8%
26,O=C(Nc1ccccc1CO)c1cccc(F)c1,13.8%
27,C/C(=N\N=C1\NC(=O)C(CC(=O)Nc2ccccc2Br)S1)c1ccc(Cl)cc1 (centres undefined),-1.5%

row,Structure (SMILES),displacement
1,COc1cc(C(=O)NC2CCCCC2)cc(OC)c1OC,7.9%
2,C/C(=C\C(=O)c1ccc(C)cc1)Nc1ccc(Br)c(C)c1,4.4%
3,CCOC(=O)C1C(=O)C=C(/C=C/c2cccs2)CC1c1ccccc1 (centres undefined),-17.1%
4,CC(C)c1ccccc1NS(=O)(=O)c1cccc([N+](=O)[O-])c1,5.2%
5,CN1C2=C(C(=O)CC(C)(C)C2)C(c2cccs2)C2=C1CC(C)(C)CC2=O,-6.5%
6,CC1=NN(c2ccc(Cl)c(Cl)c2)C(=O)/C1=C/c1ccc2c(c1)OCO2,6.4%
7,COc1ccc(S(=O)(=O)N(CC(=O)NCc2ccc(C)cc2)Cc2ccccc2)cc1OC,-11.1%
8,O=C(NC(=S)Nc1ccc(Cl)c(-c2nc3ccccc3[nH]2)c1)c1ccccc1Cl,-4.5%
9,O=C(CCCN1C(=O)c2cccc3cccc(c23)C1=O)Nc1nc(-c2cccc([N+](=O)[O-])c2)cs1,-9.8%
10,O=C(Nc1ncc(Cc2ccccc2)s1)c1ccccc1[N+](=O)[O-],15.8%
11,CCN(CC)CCNC(=O)Cn1nc(C)c2ccccc2c1=O,2.6%
12,Cc1ccc(N=Cc2cccc(O)c2O)cc1I,3.3%
13,COc1ccc(C2/C(=C(/O)c3ccccc3)C(=O)C(=O)N2c2cccc(C)c2)cc1 (centres undefined),3.9%
14,O=C1NC(=O)/C(=C\c2ccc(-c3cccc(Cl)c3)o2)S1,9.8%
15,Cc1ccc(N2C(=O)NC(=O)/C(=C\c3ccc(I)o3)C2=O)cc1,6.4%
16,O=C(COc1ccccc1Cl)N1CCN(c2ccccc2)CC1,-6.6%
17,O=C(Nc1nc(-c2ccccc2)cs1)c1ccc(Cl)cc1Cl,-11%
18,O=C(Nc1ccc(-c2nc3ccccc3s2)cc1)c1ccc(Br)o1,-23.8%
19,CC1(C)c2ssc(=S)c2-c2ccccc2N1C(=O)CSc1nnc(N)s1,21.8%
20,COc1ccc(Cl)cc1C(=O)NC(C)C,-4.5%
21,CC(C)(C)c1csc(N/N=C/c2ccc(Br)cc2)n1,-23.9%
22,COC(=O)c1cc(NC(=O)CCCC(=O)O)cc(C(=O)OC)c1,6.1%
23,CN(C)c1ccc(/C=N/Nc2cc(N3CCOCC3)nc(N3CCOCC3)n2)cc1,5.7%
24,Oc1c(CN2CCCCC2)cc(CN2CCCCC2)nc1-c1ccccc1,16.9%
25,COc1ccc(/C=N/NC(=O)CNc2cccc3ccccc23)c(O)c1,-10.7%
26,C/C(CC(=O)Nc1cccc(C)n1)=N\NC(=O)c1ccco1,-16.9%
27,CC1=C(C(=O)OCCc2ccccc2)C(c2cccc([N+](=O)[O-])c2)NC(=O)N1C (centres undefined),-1.2%

# Reference: PubChem BioAssay AID1240 (Sanford-Burnham Center for Chemical Genomics, 2008)
